# Laboratory results published in PubChem BioAssay AID651820 (National Center for Advancing Translational Sciences (NCATS), 2012).
# The whole screen tested about 340,000 compounds, of which about 12,000 (3.5%) were called active. Inconclusive means that the source gave no clear call. Such entries were picked first, then a sample of the others. Calls come from the whole dose curve; as a rule, active = well fitted inhibition curve with a large enough effect; inconclusive = small, poorly fitted or top-dose-only effect, or another doubt; inactive = no such curve, though single readings can be large or run the other way. Potencies of inconclusive entries are left out as doubtful fits.
# Assay: qHTS Assay for Inhibitors of Hepatitis C Virus (HCV)
# Conditions: Huh7.5.1 HCVcc-Cre (HCVcc is cell-culture hepatitis C virus) infection, luciferase reporter, 44 h; series mostly up to 41.8 µM
# Procedure, shortened: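 Whole-lifecycle infectious HCVcc-Cre system; cells 1,000/well, compound then virus (~0.5 moi) added 4 h after plating, 44 h culture. Luciferase read 15 sec following 15 min substrate incubation, room temp.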
# Potency is the fitted concentration of half-maximal effect; tags give direction and shape of the fitted curve.
row,Compound,Potency
1,Cc1nn(-c2ccccc2)c2sc(C(=O)N3CCOCC3)cc12,"inconclusive [inhibitor, single point]"
2,CCOCCCNC(=O)C(NC(=O)c1ccccc1O)c1ccc(Cl)cc1 (centres undefined),"inconclusive [inhibitor, single point]"
3,CN1C(C)(C)CCCC1(C)C,"inconclusive [inhibitor, single point]"
4,O=C1CN(c2ccccc2)C(=S)N1C(=O)c1ccccc1,inactive
5,Cc1ccc(S(=O)(=O)Nc2cccc(-c3cn4ccsc4n3)c2)cc1,"inconclusive [inhibitor, single point]"
6,Cc1ccc2nc(-c3ccc(NC(=O)COC(=O)c4cncc(Br)c4)cc3)sc2c1,inactive
7,O=C(O)c1cccc2nc3ccccc3nc12,inactive
8,Cc1cc([N+](=O)[O-])nn1CC(=O)Nc1ccccn1,inactive
9,CC1(C)CC(=O)C2=C(C1)N(c1ccc(F)cc1)C(=O)C2(NC(=O)c1ccccc1F)C(F)(F)F (centres undefined),inactive
10,Cn1cc([N+](=O)[O-])c(C(=O)Nc2nccs2)n1,"inconclusive [inhibitor, single point]"
11,C=CCn1c(NCc2ccc3c(c2)OCO3)nc2ccccc21,"inconclusive [inhibitor, single point]"
12,O=C(NCCc1ccccc1)c1cccc(NC(=O)C2CCC2)c1,"inconclusive [inhibitor, single point]"
13,C#CCOCCOCCOCCNc1nc(N2CCN(C(=O)[C@H]([C@@H](C)CC)n3cc(CCCN=C(N)N)nn3)CC2)nc(N2CCN(C(=O)[C@H](CCCCN)n3cc(CC(C)O)nn3)CC2)n1 (some centres undefined),"inconclusive [inhibitor, single point]"
14,Cc1nn(-c2ccccc2)c(N2CCCCC2)c1/C=N/NC(=O)c1ccncc1,"inconclusive [inhibitor, full curve, poor fit]"
15,CCOC(=O)C1(CCCc2ccccc2)CCN(Cc2cn(CC)nc2C)CC1,active: 11.2 µM
16,COc1cccc(C2=NOC(C(=O)Nc3cccnc3Cl)C2)c1OC (centres undefined),inactive
17,COc1cc2cc(c1Cl)N(C)C(=O)CC(OC(=O)C(C)N(C)C(C)=O)C1(C)OC1C(C)C1CC(O)(NC(=O)O1)C(OC)C=CC=C(C)C2 (centres undefined),"inconclusive [inhibitor, single point]"
18,O=C(NCCc1c[nH]c2ccccc12)C(=O)NCC1OCCN1S(=O)(=O)c1ccc(Cl)cc1 (centres undefined),"inconclusive [inhibitor, single point]"
19,CCOC(=O)c1[nH]c2c(c1C)C(=O)CC(c1ccc(F)cc1)C2 (centres undefined),"inconclusive [inhibitor, partial curve]"
